Reference: PMC4857127
These are yes or no findings as the source states them, for the method shown. For part of these data: Binding seen in cells or lysates may run through a third protein. Some results given as binding are weak or reduced against the parent protein; the word gives no strength. For part of these data: Sequences can lack the tags named with a protein.

By UniProt entry, the sequences of proteins in these tests, tags left out. Where a name states a change or a piece, a line headed by the entry shows the natural chain unless it says otherwise. Residues count along the entry.
UniProt Q9Y5S8, residues 217-550: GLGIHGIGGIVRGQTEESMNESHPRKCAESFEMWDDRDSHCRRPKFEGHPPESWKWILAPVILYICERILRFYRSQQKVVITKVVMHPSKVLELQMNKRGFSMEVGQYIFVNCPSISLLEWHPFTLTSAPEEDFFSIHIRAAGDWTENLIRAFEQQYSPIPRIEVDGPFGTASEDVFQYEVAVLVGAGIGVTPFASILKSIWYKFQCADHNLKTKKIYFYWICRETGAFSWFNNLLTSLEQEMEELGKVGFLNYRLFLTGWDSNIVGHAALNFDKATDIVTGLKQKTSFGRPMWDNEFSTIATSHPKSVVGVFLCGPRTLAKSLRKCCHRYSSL
UniProt O60602: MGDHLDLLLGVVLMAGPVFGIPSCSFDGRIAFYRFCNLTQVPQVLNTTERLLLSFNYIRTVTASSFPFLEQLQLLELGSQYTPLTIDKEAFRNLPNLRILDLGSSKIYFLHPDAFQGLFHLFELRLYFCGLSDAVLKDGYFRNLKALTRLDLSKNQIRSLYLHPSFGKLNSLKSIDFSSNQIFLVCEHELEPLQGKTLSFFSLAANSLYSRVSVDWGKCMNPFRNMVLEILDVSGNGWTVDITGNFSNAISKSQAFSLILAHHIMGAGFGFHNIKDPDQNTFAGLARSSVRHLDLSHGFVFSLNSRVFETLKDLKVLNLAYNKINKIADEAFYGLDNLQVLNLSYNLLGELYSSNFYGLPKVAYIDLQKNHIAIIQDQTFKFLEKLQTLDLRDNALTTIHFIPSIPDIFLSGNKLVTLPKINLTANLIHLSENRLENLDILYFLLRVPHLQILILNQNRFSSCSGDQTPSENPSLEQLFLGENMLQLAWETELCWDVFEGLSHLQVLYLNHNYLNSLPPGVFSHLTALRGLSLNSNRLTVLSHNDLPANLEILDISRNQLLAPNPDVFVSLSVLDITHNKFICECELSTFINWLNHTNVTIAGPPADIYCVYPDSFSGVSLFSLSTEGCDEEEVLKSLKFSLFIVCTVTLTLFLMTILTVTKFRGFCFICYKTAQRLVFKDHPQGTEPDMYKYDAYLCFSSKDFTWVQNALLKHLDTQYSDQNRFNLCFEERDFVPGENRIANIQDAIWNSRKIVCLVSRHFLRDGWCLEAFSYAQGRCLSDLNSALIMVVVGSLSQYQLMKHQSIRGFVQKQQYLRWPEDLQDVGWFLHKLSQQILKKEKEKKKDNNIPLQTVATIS
Toll/Interleukin-1 receptor (TIR, AA 691–837) domain of TLR5: residues 691-837 of O60602

T1: GST-Nox4 (AA 248–578) (human) (UniProt Q9NPH5)
T1 sequence: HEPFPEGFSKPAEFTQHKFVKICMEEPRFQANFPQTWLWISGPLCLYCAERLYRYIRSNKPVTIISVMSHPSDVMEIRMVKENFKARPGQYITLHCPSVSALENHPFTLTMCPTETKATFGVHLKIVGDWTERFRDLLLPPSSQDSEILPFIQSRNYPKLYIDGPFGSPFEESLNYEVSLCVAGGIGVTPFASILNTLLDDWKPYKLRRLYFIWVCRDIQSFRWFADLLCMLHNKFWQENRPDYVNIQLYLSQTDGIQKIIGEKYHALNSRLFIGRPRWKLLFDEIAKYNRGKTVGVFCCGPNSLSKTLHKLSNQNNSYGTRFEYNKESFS


Columns and labels:
[1] = target: GST-Nox1 (AA 217–550) (human) (UniProt Q9Y5S8); experiment: pull-down; GST fusion proteins conjugated with glutathione-Sepharose 4B beads, incubated with lysates of HEK293T cells expressing Flag-TLR5; detection with anti-Flag; only the target purified
[2] = target: T1, GST-Nox4 (AA 248–578) (human); experiment: as above
[3] = target: Toll/Interleukin-1 receptor (TIR, AA 691–837) domain of TLR5 (UniProt O60602); experiment: two-hybrid; yeast expressing pB42AD-TIR-TLR5 with pLexA-Nox C-terminal regions; after selection for Trp+ and His+, Leu-dependent growth and β-galactosidase activity (X-gal) in SD/galactose/raffinose medium
[4] = target: Flag-tagged TLR5 (UniProt O60602); experiment: co-IP; HEK293T cells transfected with Flag-CMV-TLR5 and HA-Nox1-C or HA-Nox4-C; serum starvation, then without or with flagellin (100 ng/ml, 30 min); IP with antibody to Flag, immunoblot with antibodies to HA

Molecule | binding [3] | further results
Flag-tagged TLR5 (from UniProt O60602 21-858) (receptor) |  | binding [1]: binds; binding [2]: binds
pLexA-Nox1-C (COOH-terminal region, AA 217–550) (from UniProt Q9Y5S8 217-550) (domain or fragment) | binds | 
pcDNA3.0-HA-Nox1C (AA 217–550) (from UniProt Q9Y5S8 217-550) (domain or fragment) |  | binding [4]: binds
Nox2 COOH-terminal region (AA 291–571) (domain or fragment, UniProt P04839 291-570) SQQKVVITKVVTHPFKTIELQMKKKGFKMEVGQYIFVKCPKVSKLEWHPFTLTSAPEEDFFSIHIRIVGDWTEGLFNACGCDKQEFQDAWKLPKIAVDGPFGTASEDVFSYEVVMLVGAGIGVTPFASILKSVWYKYCNNATNLKLKKIYFYWLCRDTHAFEWFADLLQLLESQMQERNNAGFLSYNIYLTGWDESQANHFAVHHDEEKDVITGLKQKTLYGRPNWDNEFKTIASQHPNTRIGVFLCGPEALAETLSKQSISNSESGPRGVHFIFNKENF | no binding | 
Nox3 COOH-terminal region (AA 296–568) (domain or fragment, UniProt Q9HBY0 296-568) TKVVSHPSGVLELHMKKRGFKMAPGQYILVQCPAISSLEWHPFTLTSAPQEDFFSVHIRAAGDWTAALLEAFGAEGQALQEPWSLPRLAVDGPFGTALTDVFHYPVCVCVAAGIGVTPFAALLKSIWYKCSEAQTPLKLSKVYFYWICRDARAFEWFADLLLSLETRMSEQGKTHFLSYHIFLTGWDENQALHIALHWDENTDVITGLKQKTFYGRPNWNNEFKQIAYNHPSSSIGVFFCGPKALSRTLQKMCHLYSSADPRGVHFYYNKESF | no binding | 
